Laboratory results reported in ChEMBL document CHEMBL4888484, “Replenishing the malaria drug discovery pipeline: Screening and hit evaluation of the MMV Hit Generation Library 1 (HGL1) against asexual blood stage Plasmodium falciparum ,using a nano luciferase reporter read-out” (2022).
Out of some 150,000 compounds screened, about 540 (0.36%) showed an effect of 50% or more. This is one part of the list.

system: Plasmodium falciparum; experiment: Primary screen in NF54 nanoGlo assay, in single point, at 2uM, 72h; a lower Z score goes with more inhibition; assay type: functional, Erythrocyte; conditions: timepoint 72 hour

Compound	% Inhibition [%]	Z score
Cc1ccc(C)c(NC(=O)COC(=O)CCC(=O)Nc2cccc(C(=O)OCC(C)C)c2)c1	-6	0.71
CC(C)N1C[C@@H](C(=O)Nc2ccc3c(c2)OCCO3)CC1=O	-9	1.31
COc1ccc(C(=O)N2CCOC[C@H](Oc3ccc(C(F)(F)F)cn3)C2)cc1	16	-1.91
CC(NCC(C)N1CCN(C)CC1)c1nc2ccc(Cl)cc2n1C (centres undefined)	9	-1.45
O=C(N[C@H]1CC[C@H](O)CC1)c1cncnc1C1CC1	-4	0.5
COc1cc(OC)c(CN(C)C[C@H]2CC(=O)N(C(C)(C)C)C2)cc1Cl	14	-1.79
COc1ccc(CN2C[C@H]3CN(C)C[C@H]3C2)cc1OCc1ccccc1F	8	-1.25
COc1ccc(-c2cc3c(N4CCN(c5cc(Cl)ccc5C)CC4)nccn3n2)cc1OC	-13	1.99
CC(C)N(Cc1nccn1C)C(=O)CCc1nnc(CCc2c[nH]c3ccccc23)o1	-5	0.99
CN(CC1CCOCC1)S(=O)(=O)c1ccccc1	-10	1.44
C[C@@H](CN(C)Cc1ccc(C2CCCCC2)s1)N1CCOCC1	-2	0.37
COc1ccc(C(=O)N2CCC3(CC2)OC[C@@H](C(=O)NC(C)C)N3C(=O)c2ccccc2C)cc1OC	5	-0.57
CN(C)[C@@H]1C[C@@H](CO)N(Cc2ccc3ccccc3n2)C1	4	-0.61
Cc1nc2c(n1[C@H]1CCN(C(=O)CCCOc3cccnc3)C1)CCCC2	5	-0.63
Cc1cnn([C@H]2[C@@H]3OC[C@@H](O3)[C@@H](NCc3cnn(C)c3)[C@@H]2O)c1	-9	1.18
O=C(NCc1cccnc1-c1ccncc1)c1ccc(Cl)c(Cl)c1	-8	1.4
Cn1ncc(N2CC[C@H](C(=O)NCCc3ccccc3)C2)cc1=O	-14	1.99
COc1cc(OC)c(NC(=O)C2CCN(S(=O)(=O)c3cc4c(cc3C)NC(=O)CO4)CC2)cc1Cl	2	-0.24
O=C(NC1CCCCCC1CO)C1(O)CCCC1 (centres undefined)	-11	1.22
CC(C)c1ccc(C(=O)NC[C@@H]2COc3ccccc3C2)c(=O)n1C	-12	1.64
COc1cc(OC)cc(C(=O)N/C(=N/c2ccccc2)NCc2cccnc2)c1	-25	2.32

Compound	% Inhibition [%]	Z score
Cc1ccc[n+](CC2OCc3ccccc3CO2)c1	5	-0.68
CCc1c(C)nc(C)nc1NCC[C@H]1CCCOC1	1	-0.27
C=CCNS(=O)(=O)c1ccc(Br)c(C)c1	-13	1.63
Cc1nc(C#N)c(NC[C@@H](c2ccsc2)N(C)C)o1	-3	0.38
c1ncn(CC2CCN(c3nc(C4CCCC4)ns3)CC2)n1	1	-0.13
CCOc1cccc(CNC(=O)[C@@H]2CCCCC(=O)N2Cc2cccc(OC)c2)c1	2	-0.36
C#CCOC[C@@H](O)CN(CCC)Cc1ccc(OC)cc1	-6	0.79
COc1ccc(Oc2c(CN(CC3CC3)C(=O)c3cccc(F)c3)c(-c3ccccc3)nn2C)cc1	8	-0.7
Cc1ccncc1N1CCN(c2nccn3cnnc23)CC1	-1	0.16
CNc1ccnc(N2CCC[C@]3(CCC(=O)N(C(C)C)C3)C2)n1	-14	1.7
CC(C)NC[C@H](O)Cn1c(-c2ccccc2)ccc1-c1ccccc1	8	-1.24
CC(=O)Nc1ccc2[nH]c(C)c([C@H](Nc3cc(C)ccn3)c3ccccn3)c2c1	-3	0.53
COc1cc(CN2CCc3ccccc3[C@@H]2CO)cc2c1OCCO2	-10	1.14
O=c1nc(O)c2nsnc2n1CCO	4	-0.45
O=C(c1noc2ccc(S(=O)(=O)NC3CCCCC3)cc12)N1CCOCC1	0	0.03
O=S(=O)(c1cc(Cl)ccc1Cl)N1CN(C2CCCC2)c2nc3ccccc3nc21	-13	1.39
Nc1cncc(-c2ccc(NC3CCCC3)nn2)c1	4	-0.6
CCOc1ccc(S(=O)(=O)n2c(=O)n(S(=O)(=O)c3ccc(OCC)cc3)c3ccccc32)cc1	-3	0.34
Cc1ccc2c(C(=O)N(C)CCCN3CCCC3)c[nH]c2c1	1	-0.17
CC1CCCN(C(=O)CN2CCNCC2=O)C1C (centres undefined)	-5	0.66
Cc1nc(C)c(C)c(N2Cc3cn[nH]c3C(C)(C)C2)n1	-17	1.81

Compound	% Inhibition [%]	Z score
OCCC[C@@H]1CN(c2nc(-c3ccccc3)no2)CC[C@@H]1N1CCOCC1	-5	0.78
CCc1ccccc1NC(=O)CN1C(=O)C(C)(C)c2cc(C)ccc21	-4	0.63
CC(C)(C)n1nc(-c2c[nH]c3ccccc23)nc1[C@@H]1CCC[C@H](N)C1	15	-1.91
O=C(c1cc(Cl)c[nH]1)N1CCCCCC1CC(O)c1ccco1 (centres undefined)	-6	0.9
NC(=O)N1CCCN(C(=O)CNC(=O)c2cccc(F)c2)CC1	-9	0.73
Cc1ccc(NC(=O)C(Cc2ccccc2)C(=O)Nc2ccc(C)c(C)c2)cc1C	1	-0.11
Cc1nnc(O)nc1N1CCN(c2ccccc2)CC1	1	-0.15
Cn1cc(C(=O)NC2CCN(Cc3ccccc3)CC2)cn1	-8	1.44
CS(=O)(=O)N1CCC(c2ccnc3ccccc23)CC1	-11	1.02
Cc1ccc(CN[C@H](C)c2nnc3n2CCCCC3)c(Cl)c1	0	-0.04
Cc1c(C(=O)N2CC(C)(C)Oc3ccccc32)cnn1-c1ccncc1	17	-1.93
Cc1noc(C)c1NC(=O)C(=O)N[C@@H](C)c1ccc(C(C)(C)C)cc1	-11	1.11
CCC1=N[C@@H](c2ccc(O)cc2)N(O)C1(C)C	6	-1.11
O=C(CN1CCCCC1=O)N[C@@H]1COCC[C@@H]1Oc1cccc(F)c1	-1	0.11
CCc1nn(C)cc1C(=O)N[C@@](C)(CC)CO	-5	0.73
Cc1ccc(-n2[nH]c(C(=O)N(C)[C@@H](CCc3ccccc3)C(F)F)cc2=O)cc1	-3	0.46
C[C@@H](CNC(=O)c1ccncc1)N1CCCC1	-11	1.73
CCCS(=O)(=O)N(CCOC)CC(=O)N(Cc1ccc(Cl)cc1)C1CCN(C(=O)Nc2c(C)cccc2C)CC1	-21	2.09
NC(=O)c1ccc(Br)cc1F	-3	0.34
COc1cccc(CC(=O)N2CCC3(CCCCO3)CC2)c1	2	-0.25
CCOc1cc(-c2noc(CCCC(=O)N3CCCCC3)n2)ccc1OC	-5	0.91

Compound	% Inhibition [%]	Z score
Brc1cc(CNCc2cccnc2)cc2c1OCO2	2	-0.27
COc1ccc(-c2cc(C(F)(F)F)nc(-n3nc(-c4cccc(OC)c4)c(Cl)c3-c3cccc(OC)c3)n2)cc1	91	-10.21
CCS(=O)(=O)c1ccc2oc(-c3cccc(OS(=O)(=O)c4ccccc4OC(F)(F)F)c3)nc2c1	-23	2.27
CCN1CCN(C(=O)c2cccc(-c3cccc4c(O)cc(C)nc34)c2)CC1=O	-2	0.32
Cc1cc2c(cn1)CN(C(=O)[C@H]1CCC(=O)N(C(C)C)C1)C2	-2	0.25
O=C(NC1CCN(Cc2ccccc2)CC1)c1ccc2ccccc2n1	-6	0.91
CC(C)CN1C(=O)[C@H](Cc2ccccc2)NC12CCN(C(=O)c1ccc(Cl)cc1)CC2	33	-4.78
C[C@H]1CCCCN1CCCNC(=O)c1cc2n(n1)CCN(Cc1c(Cl)cccc1Cl)C2=O	-10	0.97
O=C(C[C@H](c1ccc(OCc2ccccc2)cc1)c1c[nH]c2ccc(Cl)cc12)NCc1ccccc1	-10	1.22
CS(=O)(=O)c1ccc(Cl)c(C(=O)NCc2ccc(S(=O)(=O)N3CCCC3)cc2)c1	2	-0.29
Cc1ccccc1[C@H]1[C@@H](C(=O)N(C)Cc2cccnc2)C[C@@](C)(C(=O)O)N1C	0	-0.02
O=C(Nc1ccccc1N1CCCC1)[C@@H]1Cc2ccccc2O1	34	-4.42
CCOC1CC1C(=O)NCC(O)C(C)C (centres undefined)	8	-1.42
COc1cc(-c2noc(-c3ccccc3)n2)ccc1OCC(=O)Nc1ccccc1	-9	1.78
C=CCn1cc(CN(C)CCN2CCCC[C@@H]2C)c(C)n1	-5	0.66
C[C@@H](CNC(=O)Cc1ccsc1)NC(=O)OC(C)(C)C	-1	0.05
CCn1c(-n2nc([C@H]3CCOC3)nc2CN2CCOC2=O)nc2ccccc21	-5	0.71
O=C(NCC[C@H]1CCC(F)(F)C1)c1cc2n(n1)CCCC2=O	-8	1.08
NC(=O)[C@@H]1CN(Cc2ccn(-c3ccc(Cl)cc3)n2)CCO1	-4	0.65
